According to the supplement of paper PMC10037445:
Whole data set: some 2,900 compounds, median “NF-kB SEAP reporter activity, fold change vs agonist alone” near 0.99, cut for the highest 2% near 2.6. Some of the results follow.

Legend:
RAW-Dual [1] = test: NF-kB SEAP reporter activity, fold change vs agonist alone; cytotoxicity flag (confluency mask): not cytotoxic; higher = enhanced NF-kB activity
Summary of the method: (§1)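 Reporter activity is given as fold change relative to agonist-alone wells. To measure it, 50 nL of library stock was pin-tooled onto RAW-Dual macrophages (50,000 cells/well, DMEM, 384-well plates), a PRR agonist followed 1 h later, and cells stayed at 37 °C, 5% CO2. Twenty hours on, supernatant was assayed for IRF (QuantiLuc luminescence) and NF-κB (QuantiBlue, 620 nm absorbance), and wells under 70% of agonist-control IncuCyte confluency in both mask sets were marked cytotoxic.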

RAW-Dual [2] = test: NF-kB SEAP reporter activity, fold change vs agonist alone; higher = enhanced NF-kB activity; settings: cytotoxicity flag (confluency mask): not cytotoxic
Summary of the method: as §1

[3] = agonist: ODN 1826 (TLR9) 0.5 ug/mL
[4] = agonist: Pam2CSK4 (TLR2/6) 0.1 ug/mL
[5] = agonist: Pam3CSK4 (TLR2/1) 0.1 ug/mL
[6] = library stock concentration (final ~1000-fold dilution): 10 mM, agonist: Imiquimod (TLR7) […]
[7] = library stock concentration (final ~1000-fold dilution): 10 mM, agonist: MPLA (TLR4) […]

## O=C1c2ccccc2C(=O)C1c1ccccc1 (library stock concentration (final ~1000-fold dilution): 10 mM)
RAW-Dual [1]; agonist: LPS (TLR4) 0.1 ug/mL
  NF-kB SEAP reporter activity: 1.21
RAW-Dual [1]; [3]
  NF-kB SEAP reporter activity: 1.05
RAW-Dual [1]; [4]
  NF-kB SEAP reporter activity: 0.866
RAW-Dual [1]; [5]
  NF-kB SEAP reporter activity: 1.1

## O=C1c2ccccc2C(=O)C1c1ccccc1
RAW-Dual [2]; [6]
  NF-kB SEAP reporter activity: 1.02
RAW-Dual [2]; [7]
  NF-kB SEAP reporter activity: 1.23

## O=C(c1cc(Cc2n[nH]c(=O)c3ccccc23)ccc1F)N1CCN(C(=O)C2CC2)CC1 (library stock concentration (final ~1000-fold dilution): 10 mM)
RAW-Dual [1]; agonist: LPS (TLR4) 0.1 ug/mL
  NF-kB SEAP reporter activity: 1.66
RAW-Dual [1]; [3]
  NF-kB SEAP reporter activity: 1.15
RAW-Dual [1]; [4]
  NF-kB SEAP reporter activity: 1.3
RAW-Dual [1]; [5]
  NF-kB SEAP reporter activity: 1.4

## O=C(c1cc(Cc2n[nH]c(=O)c3ccccc23)ccc1F)N1CCN(C(=O)C2CC2)CC1
RAW-Dual [2]; [6]
  NF-kB SEAP reporter activity: 1.03
RAW-Dual [2]; [7]
  NF-kB SEAP reporter activity: 1.33

## CCN(CC)CCNC(=O)c1cc(Cl)c(N)cc1OC.Cl
RAW-Dual [2]; [6]
  NF-kB SEAP reporter activity: 0.986
RAW-Dual [2]; [7]
  NF-kB SEAP reporter activity: 1.02

## CCN(CC)CCNC(=O)c1cc(Cl)c(N)cc1OC.Cl (library stock concentration (final ~1000-fold dilution): 10 mM)
RAW-Dual [1]; agonist: LPS (TLR4) 0.1 ug/mL
  NF-kB SEAP reporter activity: 0.887
RAW-Dual [1]; [3]
  NF-kB SEAP reporter activity: 0.994
RAW-Dual [1]; [4]
  NF-kB SEAP reporter activity: 0.978
RAW-Dual [1]; [5]
  NF-kB SEAP reporter activity: 0.954

## Clc1ccc2c(c1)C(N1CCNCC1)=Nc1ccccc1O2
RAW-Dual [2]; library stock concentration (final ~1000-fold dilution): 2 mM, agonist: Imiquimod (TLR7) […]
  NF-kB SEAP reporter activity: 0.716
RAW-Dual [2]; library stock concentration (final ~1000-fold dilution): 2 mM, agonist: MPLA (TLR4) […]
  NF-kB SEAP reporter activity: 1.15

## Clc1ccc2c(c1)C(N1CCNCC1)=Nc1ccccc1O2 (library stock concentration (final ~1000-fold dilution): 2 mM)
RAW-Dual [1]; agonist: LPS (TLR4) 0.1 ug/mL
  NF-kB SEAP reporter activity: 1.19
RAW-Dual [1]; [3]
  NF-kB SEAP reporter activity: 0.843
RAW-Dual [1]; [4]
  NF-kB SEAP reporter activity: 0.83
RAW-Dual [1]; [5]
  NF-kB SEAP reporter activity: 0.784

## O=C(O)CCc1nc(-c2ccccc2)c(-c2ccccc2)o1 (library stock concentration (final ~1000-fold dilution): 10 mM)
RAW-Dual [1]; agonist: LPS (TLR4) 0.1 ug/mL
  NF-kB SEAP reporter activity: 1.07
RAW-Dual [1]; [3]
  NF-kB SEAP reporter activity: 1.02
RAW-Dual [1]; [4]
  NF-kB SEAP reporter activity: 1.1
RAW-Dual [1]; [5]
  NF-kB SEAP reporter activity: 1.11

## O=C(O)CCc1nc(-c2ccccc2)c(-c2ccccc2)o1
RAW-Dual [2]; [6]
  NF-kB SEAP reporter activity: 1.16
RAW-Dual [2]; [7]
  NF-kB SEAP reporter activity: 1.01

## CC(=CC(=O)OCCCCCCCCC(=O)O)CC1OCC(CC2OC2C(C)C(C)O)C(O)C1O (centres undefined)
RAW-Dual [2]; [7]
  NF-kB SEAP reporter activity: 1.07

## CC(=CC(=O)OCCCCCCCCC(=O)O)CC1OCC(CC2OC2C(C)C(C)O)C(O)C1O (centres undefined) (library stock concentration (final ~1000-fold dilution): 10 mM)
RAW-Dual [1]; agonist: LPS (TLR4) 0.1 ug/mL
  NF-kB SEAP reporter activity: 1.41
RAW-Dual [1]; [3]
  NF-kB SEAP reporter activity: 1.05
RAW-Dual [1]; [4]
  NF-kB SEAP reporter activity: 1.23
RAW-Dual [1]; [5]
  NF-kB SEAP reporter activity: 1.14

## N#Cc1cnc(Nc2cc(NCC3CNCCO3)c(C(F)(F)F)cn2)cn1 (centres undefined) (library stock concentration (final ~1000-fold dilution): 10 mM)
RAW-Dual [1]; agonist: LPS (TLR4) 0.1 ug/mL
  NF-kB SEAP reporter activity: 1.37
RAW-Dual [1]; [3]
  NF-kB SEAP reporter activity: 1.25
RAW-Dual [1]; [4]
  NF-kB SEAP reporter activity: 1.34
RAW-Dual [1]; [5]
  NF-kB SEAP reporter activity: 1.5
